Some of the results follow. Sequences were assembled here from the parent chain. Values near 0.05 are background.
B1: TEV protease; numbered along this chain (parent)
chain: MGESLFKGPRDYNPISSSICHLTNESDGHTTSLYGIGFGPFIITNKHLFRRNNGTLVVQSLHGVFKVKDTTTLQQHLVDGRDMIIIRMPKDFPPFPQKLKFREPQREERICLVTTNFQTKSMSSMVSDTSCTFPSGDGIFWKHWIQTKDGQCGSPLVSTRDGFIVGIHSASNFTNTNNYFTSVPKNFMELLTNQEAQQWVSGWRLNADSVLWGGHKVFMVKPEEPFQPVKEATQL

Variants of: B1
Experiment: raw area under fraction-flipped curve 0-4 h after induction (AUC4h, not background-subtracted), DNA-recorder readout of cleavage of the substrate (dimensionless); higher = more cleavage of the substrate by the protease variant
Conditions: temperature: 34 °C; time window: 0-4 h after rhamnose induction
Protocol: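 In vivo DNA recorder in E. coli TOP10(DE3) ΔrhaA at 34 °C. Each TEVp single-site mutant (parent TEVp 0) is paired with a single-site variant of the 7-mer TEVs (canonical ENLYFQ|S). The substrate sits between flexible linkers in a Bxb1-sfGFP-TEVs-SsrA fusion, so cleavage stabilises Bxb1 and speeds flipping of a recombination array, read by NGS. The value is the raw area under the fraction-flipped curve over 0-4 h after rhamnose induction (AUC4h), with ≥20 reads per time point. It is not background-subtracted; inactive controls average about 0.047.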
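Note: Bxb1 expression induced with 0.2% (w/v) L-rhamnose at OD600 near 0.5, cultures sampled hourly, flipped fraction per protease–substrate barcode pair counted by paired-end Illumina sequencing.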

| Variant | area with substrate ENLAFQS | area with substrate ENLCFQS | area with substrate ENLDFQS | area with substrate ENLEFQS | area with substrate ENLFFQS | area with substrate ENLGFQS | area with substrate ENLHFQS | area with substrate ENLIFQS | area with substrate ENLKFQS | area with substrate ENLMFQS | area with substrate ENLNFQS | area with substrate ENLPFQS | area with substrate ENLQFQS | area with substrate ENLRFQS | area with substrate ENLSFQS | area with substrate ENLVFQS | area with substrate ENLLFQS | area with substrate ENLWFQS | area with substrate ENLTFQS |
| --- | --- | --- | --- | --- | --- | --- | --- | --- | --- | --- | --- | --- | --- | --- | --- | --- | --- | --- | --- |
| MGESLFKGPRDYNPISSSICHLTNESDGHTTSLYGIGFGPFIITNKHLFRRNNGTLVVQSLHGVFKVKDTTTLQQHLVDGRDMIIIRMPKDFPPFPQKLKFREPQREERICLVTTNFQTKSMSSMVSDTSCTFPSGDGIFWKHWIQTKDGQCGSPLVSTRDGFIVGIHSASNFTNTNNYFTSVPKNFMELLTNQEAQQWVSGWRLNADSVLWGGHKVFMVKPTEPFQPVKEATQL [E223T] | 0.0599 | 0.0936 | 0.0659 | 0.0714 | 0.096 | 0.0646 | 0.0698 | 0.0925 | 0.0597 | 0.0231 | 0.0595 | 0.0595 | 0.0764 | 0.0783 | 0.0637 | 0.0747 | – | – | – |
| MGESLFKGPRDYNPISSSICHLTNESDGHTTSLYGIGFGPFIITNKHLFRRNNGTLVVQSLHGVFKVKDTTTLQQHLVDGRDMIIIRMPKDFPPFPQKLKFREPQREERICLVTTNFQTKSMSSMVSDTSCTFPSGDGIFWKHWIQTKDGQCGSPLVSTRDGFIVGIHSASNFTNTNNYFTSVPKNFMELLTNQEAQQWVSGWRLNADSVLWGGHKVFMVKPEEFFQPVKEATQL [P225F] | 0.0694 | – | 0.0679 | 0.0622 | – | 0.0668 | – | 0.0688 | 0.069 | – | 0.0641 | – | 0.0605 | 0.0765 | 0.0518 | 0.078 | 0.0683 | 0.0626 | – |
| MGESLFKGPRDYNPISSSICHLTNESDGHTTSLYGIGFGPFIITNKHLFRRNNGTLVVQSLHGVFKVKDTTTLQQHLVDGRDMIIIRMPKDFPPFPQKLKFREPQREERICLVTTNFQTKSMSSMVSDTSCTFPSGDGIFWKHWIQTKDGQCGSPLVSTRDGFIVGIHSASNFTNTNNYFTSVPKNFMELLTNQEAQQWVSGWRLNADSVLWGGHKVFMVKPEEIFQPVKEATQL [P225I] | 0.0626 | – | 0.0465 | – | 0.0745 | 0.0707 | 0.0598 | 0.0985 | 0.102 | 0.0673 | 0.067 | – | – | 0.0563 | – | – | 0.095 | – | – |
| MGESLFKGPRDYNPISSSICHLTNESDGHTTSLYGIGFGPFIITNKHLFRRNNGTLVVQSLHGVFKVKDTTTLQQHLVDGRDMIIIRMPKDFPPFPQKLKFREPQREERICLVTTNFQTKSMSSMVSDTSCTFPSGDGIFWKHWIQTKDGQCGSPLVSTRDGFIVGIHSASNFTNTNNYFTSVPKNFMELLTNQEAQQWVSGWRLNADSVLWGGHKVFMVKPEEPWQPVKEATQL [F226W] | 0.094 | 0.0783 | 0.0594 | 0.071 | 0.108 | – | 0.0756 | – | 0.0701 | 0.0752 | 0.0661 | 0.0621 | – | 0.0629 | 0.068 | – | 0.0668 | – | – |
| MGESLFKGPRDYNPISSSICHLTNESDGHTTSLYGIGFGPFIITNKHLFRRNNGTLVVQSLHGVFKVKDTTTLQQHLVDGRDMIIIRMPKDFPPFPQKLKFREPQREERICLVTTNFQTKSMSSMVSDTSCTFPSGDGIFWKHWIQTKDGQCGSPLVSTRDGFIVGIHSASNFTNTNNYFTSVPKNFMELLTNQEAQQWVSGWTLNADSVLWGGHKVFMVKPEEPFQPVKEATQL [R204T] | 0.0391 | 0.0698 | 0.061 | 0.0528 | 0.0857 | – | 0.0656 | 0.0774 | 0.0835 | – | 0.0668 | 0.0515 | – | 0.0666 | 0.0646 | – | 0.0822 | 0.0729 | – |
| MGESLFKGPRDYNPISSSICHLTNESDGHTTSLYGIGFGPFIITNKHLFRRNNGTLVVQSLHGVFKVKDTTTLQQHLVDGRDMIIIRMPKDFPPFPQKLKFREPQREERICLVTTNFQTKSMSSMVSDTSCTFPSGDGIFWKHWIQTKDGQCGSPLVSTRDGFIVGIHSASNFTNTNNYFTSVPKNFMELLTNQEAQQWVSGWRLNADSVLWFGHKVFMVKPEEPFQPVKEATQL [G213F] | 0.0567 | 0.0557 | 0.0657 | – | 0.0595 | 0.0554 | 0.0594 | 0.0536 | – | – | 0.0546 | 0.0609 | – | 0.0392 | – | 0.0524 | – | 0.0609 | – |
| MGESLFKGPRDYNPISSSICHLTNESDGHTTSLYGIGFGPFIITNKHLFRRNNGTLVVQSLHGVFKVKDTTTLQQHLVDGRDMIIIRMPKDFPPFPQKLKFREPQREERICLVTTNFQTKSMSSMVSDTSCTFPSGDGIFWKHWIQTKDGQCGSPLVSTRDGFIVGIHSASNFTNTNNYFTSVPKNFMELLTNQEAQQWVSGWRLGADSVLWGGHKVFMVKPEEPFQPVKEATQL [N206G] | 0.102 | 0.086 | 0.0731 | 0.0669 | 0.0823 | 0.0715 | 0.08 | 0.103 | 0.0757 | 0.0675 | 0.053 | 0.0485 | 0.0673 | – | 0.0631 | – | 0.0777 | 0.0786 | – |
| MGESLFKGPRDYNPISSSICHLTNESDGHTTSLYGIGFGPFIITNKHLFRRNNGTLVVQSLHGVFKVKDTTTLQQHLVDGRDMIIIRMPKDFPPFPQKLKFREPQREERICLVTTNFQTKSMSSMVSDTSCTFPSGDGIFWKHWIQTKDGQCGSPLVSTRDGFIVGIHSASNFTNTNNYFTSVPKNFMELLTNQEAQQWVSGWRLNADSVLKGGHKVFMVKPEEPFQPVKEATQL [W212K] | 0.0582 | 0.0681 | 0.0624 | 0.0699 | 0.0641 | – | 0.0753 | – | 0.0631 | – | 0.0615 | 0.066 | 0.0872 | 0.0515 | 0.0585 | – | 0.0687 | – | 0.0613 |
| MGESLFKGPRDYNPISSSICHLTNESDGHTTSLYGIGFGPFIITNKHLFRRNNGTLVVQSLHGVFKVKDTTTLQQHLVDGRDMIIIRMPKDFPPFPQKLKFREPQREERICLVTTNFQTKSMSSMVSDTSCTFPSGDGIFWKHWIQTKDGQCGSPLVSTRDGFIVGIHSASNFTNTNNYFTSVPKNFMELLTNQEAQQWVSGWRWNADSVLWGGHKVFMVKPEEPFQPVKEATQL [L205W] | 0.0599 | 0.0621 | 0.0466 | – | 0.0811 | – | 0.059 | – | 0.0645 | – | 0.0619 | – | – | 0.0863 | 0.0741 | – | – | 0.0585 | – |

Source: the supplement of paper PMC12217912
